Measurements as given in the supplement of paper PMC12632987.
The full ranking holds about 4,500 sequences; the median of “median log2 fold change of GCK-ALFA target abundance (FLAG IP / Myc IP barcode read proportion)” is about 0.078, and the lowest 2% start at about -0.6. This is one part of the list.

B1: GBRAP_78_6617 (protein)
chain: ESKEEIERLLEEAARLLREVRRLEPAHADAAAEAEVLVGTALYMVDTGEESKEELEETVEEALEALEELRELLADADPRVQELVRRAEELVKEALELLRK
B2: GBRAP_184_5351 (protein)
chain: TTRSVVIEADTVEAAIAQLRAAVAAAKAAGETLELTIDVPINTVEDAKALMAALAEGAKAGVLKGTVGILNVSSDDEIIDTLVDGADEAGIRLVLALDEE
B3: GBRAP_78_6683 (protein)
chain: EVEEELDKAIEHLGKAAKILNKIGTEEALDLLGEVIDAAATVEEAHFGEANLEELEEALKRVKEALKEAKKIDTPEAKQAAKELEKAKEHLEKAIKLLKK
B4: GBRAP_9_7120 (protein)
chain: NPELIKKMAEVAKDMVEDVAEVVPELTEEERERFLKRIEELEKELLADKTATPEEAAERFKALVEEIRKEVEAKVGPELAAMVRAIADTALEEIEEIVEE
B5: GBRAP_125_3019 (protein)
chain: SREELVADLERIAAALGLSPADVAELGRLAREHGLKGALIALALALGEEEIAELLEKLSEEEVAEVVRRLAAWLDAHPDATPEEVRARLREIAREAVAAS
B6: GBRAP_78_6717 (protein)
chain: KLEELLDKAIETLNEAAKLALTLPEEKANEVLDLLVEAINLLEEILEPGVSKEEAIKLLKEAIELLKKAKELLGDSDPELKAAVEKALELAKEALKIAEE
B7: GBRAP_78_6700 (protein)
chain: KIEELIDKAIEELTKAARLAAKLPEEASTEILDLLVDALTDLEESEENGFDLEKLERALEEAEKALKLAKKLKTPTAKELAKELEKAIKYLKEAIKLKKE
B8: GBRAP_14_3830 (protein)
chain: KPTPEEIIKETLEEIAKELIKMFPEKKEEIEKGTKEILEEVLKLLKETGDVEKAFEKLREMSKKLVDEILADESETDKAAAKALVDGLVAEGELRYEELK
B9: GBRAP_11_2825 (protein)
chain: KKEKLKELAEKAEEIAEKLEALIASGAPTEEELEELRKEAKELLKLTKEHGTPAQTKLAEILLEEIEEAIANPEKREQYLQEALAFARVLEGQYLLDADE
B10: GBRAP_52_6190 (protein)
chain: MREEIRRRVEEILELVKAGRLEEARAAARELVASLNDEELELLVEVMRELALEAPLEDSDAVFRLAELIAEAIEEAGKDEVLAEDLLAAVAAALYEKELA
B11: GBRAP_52_6228 (protein)
chain: MREEMEALVREMLALVKAGDLEGARALAREAAETLSDEELELLIDALAELAEAAPLEEAPAFERLAEILAEEFERLGKDEVLVDLLEARVAAALYRREQA
B12: GBRAP_160_4029 (protein)
chain: SAKLEKLKKFAKEEFEEAKELIEGQTAEQRATIVSVTIGQIILEAEELGIDDDEMLDEIDKIGDEAVATILANPDLTEEERKELIKEAEKKVLEAIEKSK
B13: GBRAP_11_2929 (protein)
chain: KKEKLERAAELAREIAERLDAVIESGVVDPADLDEIERLLEELAELVEEYGDEYEKEVAEEARESLRRAREDPETALEHLRDARGWVIELEGLLLLRIEE
B14: GBRAP_160_4655 (protein)
chain: SAELEELLEKIREIFEEALEMMKGETHEQRVAIARVMKGDVILLLEESPSVSDETVDEVDEVMDELVETIEENPDWTDEEIEEKIDEALEEIEEILEEDF
B15: GBRAP_184_5178 (protein)
chain: MIVEKTIKVNNVEEAKEKMEEIKKEVKGKKAELVLIVEAEKFTVEIVETILSILKKMKEEGYVTKITLHLDGEMSEEVIDTAVKLAKEAGVNLVLALDEE
B16: GBRAP_64_6492 (protein)
chain: MEELKKERDEELEKAIEHLKKAAELNEEKKEEYLKLADKLEKAKELSPEEAADVLAEIAKELNKLLEEEKDNEETKEELSLALYHVSAALYLEAEIEELE
B17: GBRAP_160_4355 (protein)
chain: SETVEALIKRIREVTDEVIAAIDTESVEEVRVIAAGEFGAVFMEAAEDPRMSDEMEDVILQGRDDILAFLTANADASVAEIKAGIRAITDATIARLKALA
B18: GBRAP_160_4622 (protein)
chain: SEKLKKALELVEEARDEVLSLIPELSTEEFAHALEAEFGSVILYLLEEGYISEETEDEMMEVVDEAVAHLLAHPDLSPEERRALVEETAEEIKEIIKKNS
B19: GBRAP_159_3957 (protein)
chain: MEEVLEELREELEKLGASEEQIEAALEAVELAYEGEDAGSIAAHLVSMHTVLGASTEQILVVLKHLPEELRKEVAELLAEVARELGDEELAEALEELLEE

Target: GABARAP, O95166
Assay: median log2 fold change of GCK-ALFA target abundance (FLAG IP / Myc IP barcode read proportion) (log2 ratio); each designed protein is fused to an ALFA-tag nanobody in HEK293 cells to bring the named protein to FLAG-tagged glucokinase (GCK); Myc marks an untargeted standard; higher = target protein stabilised (more abundant)
Settings: target protein: 3xFLAG-MCP-GCK-ALFA reporter; HEK293 landing pad (RPLP)
Outline: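 HEK293 landing-pad cells received a recombined binder library fused to the ALFA nanobody and were induced with 2 μg mL^−1 doxycycline, then transfected with a plasmid encoding a FLAG-tagged target and a Myc-tagged standard. Lysates were collected after 48 h for anti-FLAG and anti-Myc immunoprecipitation, and the circular RNA barcodes were reverse transcribed, amplified and sequenced. Target abundance for each binder is the median log2 ratio of FLAG to Myc barcode read proportions. Barcodes had to reach a proportion of at least 10^−7 in both replicates, each binder needed at least 3 barcodes per replicate, a pseudocount of 10^−6 was applied, and the two replicates were pooled.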

Chain of GABARAP, O95166 (O95166 whole entry, the tested form may be a part): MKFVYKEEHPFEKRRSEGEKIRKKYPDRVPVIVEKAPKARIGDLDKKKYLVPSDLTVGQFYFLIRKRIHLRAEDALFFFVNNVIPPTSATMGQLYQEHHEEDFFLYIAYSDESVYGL

Binder	median log2 fold change
B1	-0.466
B2	0.0873
B3	0.0633
B4	-0.0499
B5	0.105
B6	0.211
B7	0.0998
B8	0.269
B9	0.0662
B10	0.00763
B11	-0.0188
B12	-0.0877
B13	0.221
B14	-0.612
B15	0.209
B16	0.0632
B17	0.143
B18	0.0582
B19	-0.249
